Each structure is given as a SMILES string. pIC50: −log10 of the molar value.

Sequence of Stromelysin-1 (P08254 whole entry): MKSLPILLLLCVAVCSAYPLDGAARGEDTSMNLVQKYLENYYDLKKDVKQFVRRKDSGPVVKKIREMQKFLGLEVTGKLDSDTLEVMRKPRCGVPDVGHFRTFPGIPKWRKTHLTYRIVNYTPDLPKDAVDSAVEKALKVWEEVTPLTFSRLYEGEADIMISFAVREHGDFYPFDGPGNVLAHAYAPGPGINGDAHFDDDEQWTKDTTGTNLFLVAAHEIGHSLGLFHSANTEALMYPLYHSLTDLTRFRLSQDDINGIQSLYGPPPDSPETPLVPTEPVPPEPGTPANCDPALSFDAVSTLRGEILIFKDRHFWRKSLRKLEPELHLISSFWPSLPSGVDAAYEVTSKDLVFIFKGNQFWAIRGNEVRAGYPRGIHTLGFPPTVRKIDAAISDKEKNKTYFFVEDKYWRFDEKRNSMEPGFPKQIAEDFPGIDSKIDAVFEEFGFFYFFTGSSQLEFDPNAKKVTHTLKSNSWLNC

One test deals with T1, Interstitial collagenase (Homo sapiens, UniProt P03956).
T1 sequence (P03956 whole entry): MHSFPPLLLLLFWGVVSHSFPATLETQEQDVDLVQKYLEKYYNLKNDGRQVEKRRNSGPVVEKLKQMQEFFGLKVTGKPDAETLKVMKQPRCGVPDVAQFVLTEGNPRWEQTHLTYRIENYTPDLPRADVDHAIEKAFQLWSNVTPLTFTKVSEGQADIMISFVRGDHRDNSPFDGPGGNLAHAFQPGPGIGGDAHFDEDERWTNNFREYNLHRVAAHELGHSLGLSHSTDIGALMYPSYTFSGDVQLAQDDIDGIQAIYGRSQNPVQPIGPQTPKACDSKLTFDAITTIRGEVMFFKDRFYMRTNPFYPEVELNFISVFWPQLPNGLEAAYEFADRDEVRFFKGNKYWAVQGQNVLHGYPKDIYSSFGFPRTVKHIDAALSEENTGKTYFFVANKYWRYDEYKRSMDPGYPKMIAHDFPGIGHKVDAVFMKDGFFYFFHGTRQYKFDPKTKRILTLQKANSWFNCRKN
The pIC50 is −log10 of the IC50, conventionally taken in molar units. A lower pIC50 goes with a high IC50. Regarding `COCOC1CSC(C)(C)[C@H](C(=O)NO)N(S(=O)(=O)c2ccc(OC)cc2)C1` (some centres undefined), the pIC50 is 9.00.

A further test addresses Stromelysin-1 (Homo sapiens, UniProt P08254).
Take `COc1ccc(S(=O)(=O)N2CCCC2C(=O)NO)cc1` (centres undefined): the pIC50 is 6.59.

Turning to `CC1(C)SCCCN(S(=O)(=O)c2ccc(Oc3ccncc3)cc2)[C@H]1C(=O)NO`, the pIC50 was 8.20.

`COc1ccc(S(=O)(=O)N2CCCCC(C)(C)[C@@H]2C(=O)NO)cc1` had a pIC50 of 8.48. Compared with the last compound, the pIC50 is 0.28 log units higher.

As to `COc1ccc(S(=O)(=O)N2CCCCCC2C(=O)NO)cc1` (centres undefined), the pIC50 was 8.15.

`COc1ccc(S(=O)(=O)N2CCCSC[C@@]2(C)C(=O)NO)cc1` showed a pIC50 of 7.51.

`COc1ccc(S(=O)(=O)N2[C@@H](C(=O)NO)C(C)(C)SCC[C@H]2c2ccccc2)cc1` gave a pIC50 of 7.59.

`COc1ccc(S(=O)(=O)N2[C@@H](c3ccccc3)CCSC(C)(C)[C@@H]2C(=O)NO)cc1`: the pIC50 was 7.48.

`COCOC1CSC(C)(C)[C@H](C(=O)NO)N(S(=O)(=O)c2ccc(OC)cc2)C1` (some centres undefined) showed a pIC50 of 9.00.

`COc1ccc(S(=O)(=O)N2C[C@@H](O)CS(=O)(=O)C(C)(C)[C@@H]2C(=O)NO)cc1` had a pIC50 of 8.14.

Compound `COc1ccc(S(=O)(=O)N2CCOCCSC(C)(C)[C@@H]2C(=O)NO)cc1` showed a pIC50 of 9.15.

On to `COc1ccc(S(=O)(=O)N2CCS(=O)(=O)C(C)(C)[C@@H]2C(=O)NO)cc1`, for which the pIC50 was 7.73.

`COc1ccc(S(=O)(=O)N2CSCC2C(=O)NO)cc1` (centres undefined): the pIC50 was 6.76.

Consider `COc1ccc(S(=O)(=O)N2CCS(=O)(=O)CC2C(=O)NO)cc1` (centres undefined), for which the pIC50 is 6.13.

Compound `CC1(C)SCCCN(S(=O)(=O)c2ccc(-c3ccccn3)s2)[C@H]1C(=O)NO` had a pIC50 of 8.96.

Take `CC1(C)SCCCN(S(=O)(=O)c2ccc(-c3ccc(F)cc3)cc2)[C@H]1C(=O)NO`: the pIC50 was 8.19. This pIC50 is 0.77 log units lower than that of the compound before.

Regarding `COc1ccc(S(=O)(=O)N2CCOCC2C(=O)NO)cc1` (centres undefined), the pIC50 was 8.24.

With `COc1ccc(S(=O)(=O)N2CCOCCS(=O)(=O)C(C)(C)[C@@H]2C(=O)NO)cc1`, the pIC50 is 7.35.

Compound `COc1ccc(S(=O)(=O)N2CCCCCSC(C)(C)[C@@H]2C(=O)NO)cc1` gave a pIC50 of 8.14.

These data come from ChEMBL document CHEMBL1132690, “Design, synthesis, and biological evaluation of potent thiazine- and thiazepine-based matrix metalloproteinase inhibitors” (J Med Chem, 1999).
